According to PMC5700166:
The list shows a part of the results, in another mix than the full data. The list includes weakly bound sequences.

Target: T1, GST-Dm-Relish (UniProt Q94527)
T1 sequence: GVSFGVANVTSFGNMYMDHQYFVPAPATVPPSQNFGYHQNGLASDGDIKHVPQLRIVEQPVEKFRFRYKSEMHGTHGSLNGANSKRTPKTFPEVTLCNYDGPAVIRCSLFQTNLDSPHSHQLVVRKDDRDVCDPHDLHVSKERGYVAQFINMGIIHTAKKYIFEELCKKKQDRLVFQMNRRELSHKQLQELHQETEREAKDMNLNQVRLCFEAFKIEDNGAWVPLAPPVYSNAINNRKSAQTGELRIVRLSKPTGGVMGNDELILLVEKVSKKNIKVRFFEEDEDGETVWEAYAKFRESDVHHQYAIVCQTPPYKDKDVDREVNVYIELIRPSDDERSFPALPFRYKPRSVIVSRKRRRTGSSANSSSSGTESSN
Assay: protein-binding microarray (PBM)
Conditions: PBM: ~300 nM protein, 6 mM HEPES pH 7.8, 80 mM KCl, 0.5 mM EDTA, 0.5 mM EGTA, 6% glycerol, 35 ng/ul poly-dIdC, 1% milk, 1 h, room temperature; Ap Aiptasia and Nv Nematostella (sea anemones) / Co Capsaspora / Aq Amphimedon (sponge) / Dm Drosophila / Hu human; RHD is the Rel homology domain; high values mean tight binding; most listed sequences are background and not binding sites; double strand, one strand shown

| Sequence | binding signal [z-score] |
| --- | --- |
| CCGATTAACATCATAATTCCCAATGATGTTAATCGGGTCTTGATTCGCTTGACGCTGCTG | 2.22 |
| CCGATTAACATCAAACTACCCCCTGATGTTAATCGGGTCTTGATTCGCTTGACGCTGCTG | 2.49 |
| CCGATTAACATCAAAATTCCCAATGATGTTAATCGGGTCTTGATTCGCTTGACGCTGCTG | 5.17 |
| CCGATTAACATCAGATATTCCCATGATGTTAATCGGGTCTTGATTCGCTTGACGCTGCTG | 1.78 |
| CCGATTAACATCACAAACGGGGCTGATGTTAATCGGGTCTTGATTCGCTTGACGCTGCTG | 1.33 |
| CCGATTAACATCAAATGTGGGAATGATGTTAATCGGGTCTTGATTCGCTTGACGCTGCTG | 0.702 |
| CCGATTAACATCAAAAGGGAATTTGATGTTAATCGGGTCTTGATTCGCTTGACGCTGCTG | 4.25 |
| CCGATTAACATCAGGGGGTGAAATGATGTTAATCGGGTCTTGATTCGCTTGACGCTGCTG | 3.46 |
| CCGATTAACATCACGGGAAACCCTGATGTTAATCGGGTCTTGATTCGCTTGACGCTGCTG | 7.56 |
| CCGATTAACATCACACATGCCCCTGATGTTAATCGGGTCTTGATTCGCTTGACGCTGCTG | 0.998 |
| CCGATTAACATCACGGGGGTTCCTGATGTTAATCGGGTCTTGATTCGCTTGACGCTGCTG | 9.73 |
| CCGATTAACATCAAGAATCCCCTTGATGTTAATCGGGTCTTGATTCGCTTGACGCTGCTG | 8.39 |
| CCGATTAACATCAATTCCCATCCTGATGTTAATCGGGTCTTGATTCGCTTGACGCTGCTG | 0.575 |
| CCGATTAACATCAAACTCCCCCTTGATGTTAATCGGGTCTTGATTCGCTTGACGCTGCTG | 6.54 |
| CCGATTAACATCAGAACATTCCCTGATGTTAATCGGGTCTTGATTCGCTTGACGCTGCTG | 1.97 |
| CCGATTAACATCAGGGGGGAAGATGATGTTAATCGGGTCTTGATTCGCTTGACGCTGCTG | 3.64 |
| CCGATTAACATCAGGGAAAAGAATGATGTTAATCGGGTCTTGATTCGCTTGACGCTGCTG | 0.818 |
| CCGATTAACATCAGGGGCAGGGATGATGTTAATCGGGTCTTGATTCGCTTGACGCTGCTG | 0.803 |
| CCGATTAACATCACGGGATTTACTGATGTTAATCGGGTCTTGATTCGCTTGACGCTGCTG | 7.12 |
| CCGATTAACATCAGGGAAAGACCTGATGTTAATCGGGTCTTGATTCGCTTGACGCTGCTG | 5.61 |

| Sequence | binding signal [z-score] |
| --- | --- |
| CCGATTAACATCAGGGGATAACCTGATGTTAATCGGGTCTTGATTCGCTTGACGCTGCTG | 7.51 |
| CCGATTAACATCAGATCTTCCCCTGATGTTAATCGGGTCTTGATTCGCTTGACGCTGCTG | 4.83 |
| CCGATTAACATCACTGAAATCCCTGATGTTAATCGGGTCTTGATTCGCTTGACGCTGCTG | 3.35 |
| CCGATTAACATCAACATGGGAATTGATGTTAATCGGGTCTTGATTCGCTTGACGCTGCTG | 0.541 |
| CCGATTAACATCAGGGGGGGTCATGATGTTAATCGGGTCTTGATTCGCTTGACGCTGCTG | 3.85 |
| CCGATTAACATCACCATTTTCCCTGATGTTAATCGGGTCTTGATTCGCTTGACGCTGCTG | 1.32 |
| CCGATTAACATCAAATTCCCACGTGATGTTAATCGGGTCTTGATTCGCTTGACGCTGCTG | 3.95 |
| CCGATTAACATCAAAAAACTCCCTGATGTTAATCGGGTCTTGATTCGCTTGACGCTGCTG | 7.13 |
| CCGATTAACATCAGGGGATTAACTGATGTTAATCGGGTCTTGATTCGCTTGACGCTGCTG | 8.54 |
| CCGATTAACATCAGGGGTTACACTGATGTTAATCGGGTCTTGATTCGCTTGACGCTGCTG | 2 |
| CCGATTAACATCAATTTCCCGCCTGATGTTAATCGGGTCTTGATTCGCTTGACGCTGCTG | 1.31 |
| CCGATTAACATCATGATGGGAAATGATGTTAATCGGGTCTTGATTCGCTTGACGCTGCTG | 0.809 |
| CCGATTAACATCAGGGAAATCCATGATGTTAATCGGGTCTTGATTCGCTTGACGCTGCTG | 5.65 |
| CCGATTAACATCACCGCTTCCCTTGATGTTAATCGGGTCTTGATTCGCTTGACGCTGCTG | 0.753 |
| CCGATTAACATCAGGGAAATAACTGATGTTAATCGGGTCTTGATTCGCTTGACGCTGCTG | 4.51 |
| CCGATTAACATCACTTTCCCAAATGATGTTAATCGGGTCTTGATTCGCTTGACGCTGCTG | 0.916 |
| CCGATTAACATCAAGGGGGGAACTGATGTTAATCGGGTCTTGATTCGCTTGACGCTGCTG | 3.7 |
| CCGATTAACATCAGGGAAATGTATGATGTTAATCGGGTCTTGATTCGCTTGACGCTGCTG | 0.922 |
| CCGATTAACATCACTATATCCCCTGATGTTAATCGGGTCTTGATTCGCTTGACGCTGCTG | 2.01 |
| CCGATTAACATCAAGCGTTTCCCTGATGTTAATCGGGTCTTGATTCGCTTGACGCTGCTG | 0.746 |
